In PubChem BioAssay AID686979 (National Center for Advancing Translational Sciences (NCATS), 2013):
Screen size: about 420,000 compounds; about 50,000 (12%) were called active. The shares of active, inactive and inconclusive entries below differ from those in the screen. The call rests on the fitted dose curve; in most records, active means well fitted inhibition curve with a large enough effect; inconclusive means small, poorly fitted or top-dose-only effect; inactive means flat fitted curve, though single readings scatter. No potency is given beside an inconclusive call; the fits are too rough.
On the % scale 0 is the no-effect control and ±100 the full control effect; potency means the concentration at half of the fitted maximal effect; tags describe the fitted curve by direction and shape.

Assay: qHTS for Inhibitors of human tyrosyl-DNA phosphodiesterase 1 (TDP1): qHTS in cells in presence of CPT; further: nearly all actives have a fitted effect of over 55% in size
Settings: chicken DT40 Tdp1-/-;hTDP1 cells + 20 nM CPT, ATP luminescence, 48 h; activity change, negative = growth inhibition: at 46.2 µM (top of the series) unless noted
Method in brief: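 Cell growth measured by CellTiter-Glo luminescence after a minimum 48 h, 37 C compound exposure with 20 nM CPT in Tdp1-knockout DT40 cells stably expressing hTDP1, seeded 400/well; qHTS titration format.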
For `COc1ccc(N=Cc2cc(Cc3ccccc3Cl)cc([N+](=O)[O-])c2O)cc1OC`, the Potency was inconclusive [inhibitor, single point]. In the case of `Cc1[nH]c2ccc(C(=O)OCC(=O)NC3(C#N)CCCCC3)cc2c1C`, the “activity change, negative = growth inhibition” value is reported as inactive: -25%. For `NC(=O)[C@H]1CC2(CC(c3cccc(NC(=O)COc4ccc(Cl)cc4)c3)=NO2)CN1C(=O)c1ccccc1C(=O)c1ccccc1` (stereo partly specified), the Potency was active: 20.6 µM. In the case of `COc1ccc(-c2[nH]ncc2/C=N\NS(=O)(=O)c2ccc(Cl)cc2)cc1`, the activity change, negative = growth inhibition is reported as inconclusive: -32.4% [inhibitor]. With `c1ccn2c(c1)nc1c2nc2ccccn21` the “activity change, negative = growth inhibition” value was inactive: -26.4%. For `COC(=O)c1c(-c2cccs2)csc1NC(=O)c1cc(OC)cc(OC)c1`, the Potency was active: 16.4 µM. With `O=C(CSc1ccc(Br)cc1)Nc1ccccc1Oc1ccccc1` the Potency was inconclusive [inhibitor, partial curve, poor fit]. In the case of `COc1ccccc1Cn1c(=S)[nH]c2cc(C(=O)N3CCN(C)CC3)ccc2c1=O`, the “activity change, negative = growth inhibition” value is reported as inactive: -23.2%. With `O=C(NCCSc1c(-c2ccc(Br)cc2)[nH]c2ccccc12)c1ccc(S(=O)(=O)N2CCOCC2)cc1` the Potency was active: 3.66 µM. In the case of `CS(=O)(=O)c1sc(C#N)c2c1C(=O)CC(c1ccccc1)C2` (stereo unspecified), the Potency is reported as active: 0.517 µM. In the case of `Nc1ccc(C#Cc2c(-c3ccsc3)oc3ccc(N4CCOCC4)cc23)cc1`, the Potency is reported as inconclusive [inhibitor, single point]. For `COc1ccc(C(=O)CCC(=O)Nc2ccc(N3CCCCC3)cc2)cc1OC`, the Potency was inconclusive [inhibitor, partial curve, poor fit]. In the case of `Cc1ccc(CNC(=O)C(CC(C)C)N2Cc3ccccc3C2=O)cc1` (stereo unspecified), the Potency is reported as inconclusive [inhibitor, partial curve, poor fit]. In the case of `COc1ccc(-c2ccnc(SCC(=O)c3ccc(Cl)cc3)n2)cc1`, the “activity change, negative = growth inhibition” value is reported as inactive: -25.9%. In the case of `O=C1C=CC[C@H](/C=C/C[C@@H](O)C[C@H](O)CCc2ccccc2)O1`, the Potency is reported as inconclusive [inhibitor, single point]. With `CCc1nc2c(OCc3ccc(OC)cc3)cccn2c1N(C)C(=O)C(C)C` the Potency was inconclusive [inhibitor, single point]. In the case of `CCOC(=O)[C@H](CCc1ccccc1)N[C@H]1CCCN2CCC[C@@H](C(=O)O)N2C1=O`, the “activity change, negative = growth inhibition” value is reported as inactive: -24.5%. With `O=S(=O)(c1ccc(SCc2ccccc2)nc1)N1CCCC1` the Potency was inconclusive [inhibitor, single point]. With `O=[N+]([O-])c1ccc(N2CCN(C(=S)NCc3ccc(Cl)cc3)CC2)cc1` the Potency was active: 5.8 µM. For `COc1ccccc1NC(=S)N(CCCN1CCOCC1)Cc1cn(C)c2ccccc12`, the Potency was active: 14.6 µM. With `CCN(C(=O)COC(=O)c1cc(-c2ccccc2)nc2c1c(C)nn2-c1ccccc1)C1CCS(=O)(=O)C1` (stereo unspecified) the Potency was inconclusive [inhibitor, single point]. For `CCOc1ccc(C2Nc3ccc4ccccc4c3-c3c2c(=O)oc2ccccc32)cc1` (stereo unspecified), the Potency was inconclusive [inhibitor, single point]. For `CCCOc1cccc(OCC(=O)Nc2nc3ccccc3[nH]2)c1`, the Potency was inconclusive [inhibitor, single point]. In the case of `CCOC(=O)c1c(NC(=S)NCCc2ccccc2)sc2c1CC(C(C)C)OC2` (stereo unspecified), the Potency is reported as inconclusive [inhibitor, single point]. In the case of `Cc1ccccc1-n1cc(CNC(=O)CC2C(=O)NCCN2C/C=C/c2ccccc2)cn1` (stereo unspecified), the Potency is reported as inconclusive [inhibitor, single point]. With `CS(=O)(=O)NCCCc1ccccc1` the “activity change, negative = growth inhibition” value was inactive: 3.78%. With `COc1cc(C(C)=O)ccc1OCCCN1CCC(c2noc3cc(F)ccc23)CC1` the Potency was inconclusive [inhibitor, single point]. In the case of `Cc1nn(Cc2ccc(Cl)cc2)c(C)c1NC(=O)c1cc(C(C)C)on1`, the Potency is reported as active: 20.6 µM. In the case of `CC1Cc2ccccc2N1C(=O)CN(C)CC(=O)Nc1ccc(F)cc1` (stereo unspecified), the Potency is reported as inconclusive [inhibitor, partial curve]. With `O=C(N1CCN(c2ccc(F)cc2)CC1)C1(c2cccs2)CCOCC1` the “activity change, negative = growth inhibition” value was inactive: -22.4%. In the case of `CCCN(CCC)C(=O)c1c(NC(=O)CC)sc2c1CCCCC2`, the Potency is reported as inconclusive [inhibitor, partial curve]. With `O=C(CN1CCN(CC(=O)Nc2ccccc2Cl)CC1)NCC1(N2CCCCC2)CCCCC1` the Potency was inconclusive [inhibitor, single point]. For `O=C(COC(=O)Cn1nnc2ccccc21)Nc1ccccc1Br`, the Potency was inconclusive [inhibitor, single point]. In the case of `CN(C)C(=O)CCc1ccc2c3c([nH]c2c1)[C@]1(C)[C@@H](C(=O)N2CCCCC2)C[C@H](CC(=O)NC(C)(C)C)C(=O)N1CC3`, the Potency is reported as inconclusive [inhibitor, single point]. In the case of `O=C(O)c1ccc(Cn2nnc3sc4c(c3c2=O)CCCC4)cc1`, the “activity change, negative = growth inhibition” value is reported as inactive: 4.14%. With `CCN(CCNC(=O)C1CCCN(c2ncnc3c2nc2n3CCCCC2)C1)Cc1ccccc1` (stereo unspecified) the Potency was inconclusive [inhibitor, single point]. With `Cc1ccc(-n2c(=O)c3sccc3n(Cc3cc(=O)n4ccccc4n3)c2=O)cc1` the Potency was “inactive”. In the case of `Cn1c(=O)c2c(nc3n2CC(CO)O3)n(C)c1=O` (stereo unspecified), the “activity change, negative = growth inhibition” value is reported as inactive: 5.19%. For `COc1ccc(C(=O)N2CCC(C(=O)Nc3ccc(OC)cc3OC)CC2)cc1`, the “activity change, negative = growth inhibition” value was inactive: 20.3%. In the case of `O=C(CSc1nc(N2CCOCC2)nc(N2CCOCC2)n1)Nc1ccc([N+](=O)[O-])cc1`, the Potency is reported as inconclusive [inhibitor, single point]. With `O=C(NNC(=O)c1ccc2ccccc2c1O)c1ccccc1Cl` the Potency was inconclusive [inhibitor, partial curve, poor fit]. With `O=C(Nc1ccccn1)C1COc2ccccc2O1` (stereo unspecified) the Potency was inconclusive [inhibitor, single point]. With `Cc1ccc(C(=O)Nc2cc3c(cc2Cl)OCCCO3)cc1` the “activity change, negative = growth inhibition” value was inactive: -10.9%. For `CCN(C(=O)Cn1nc(Cc2cccnc2)c2ccccc2c1=O)c1cc(C)ccc1C`, the Potency was active: 23.1 µM. For `CC(=O)OC1CC(n2ccc(NC(=O)c3ccccc3)nc2=O)OC1CO` (stereo unspecified), the “activity change, negative = growth inhibition” value was inactive: -8.67%. With `COc1ccc(NC(=O)CCNS(=O)(=O)c2cc(Br)cnc2N)c(OC)c1` the “activity change, negative = growth inhibition” value was inactive: 10.9%. In the case of `COc1ccc(-c2csc3nc(-c4cccnc4)nc(Cl)c23)cc1OC`, the Potency is reported as inconclusive [inhibitor, single point]. In the case of `Cc1cccc(-c2cc(NC(=O)COc3ccccc3F)n(-c3ccccc3)n2)c1`, the Potency is reported as inconclusive [inhibitor, partial curve, poor fit]. In the case of `COc1cccc(Cn2c(=O)c(-c3ccc(Cl)cc3)nc3cnc(N(C)C)nc32)c1`, the “activity change, negative = growth inhibition” value is reported as inactive: 7.14%. With `COc1ccccc1NC1=C(NC(C)=O)C(=O)c2ccccc2C1=O` the Potency was active: 18.4 µM. With `Cc1c(OCC(=O)NCCCN2CCOCC2)ccc2c1oc(=O)c1ccccc12` the Potency was inconclusive [inhibitor, single point]. In the case of `O=C1C(c2ccc(C(F)(F)F)cc2)=C(Nc2ccc(Cl)cc2)c2ccccc21`, the Potency is reported as active: 16.4 µM. With `Cc1ccc(NC(=O)CSc2nnc(-c3cc4occc4n3C)n2-c2ccccc2C)cc1F` the Potency was active: 25.9 µM. For `CCOC(=O)CN(C)C(=O)CCc1nnc(-c2ccsc2)o1`, the “activity change, negative = growth inhibition” value was inactive: -22.4%. In the case of `COc1cc(NC(=O)CN(C)S(=O)(=O)c2ccc3c(c2)CC(C)N3C(C)=O)cc(OC)c1OC` (stereo unspecified), the Potency is reported as inconclusive [inhibitor, single point]. In the case of `CCn1c(C(=O)Nc2cc(C)cc(C)c2)cc2sc(Cl)cc21`, the Potency is reported as inconclusive [inhibitor, full curve, poor fit]. In the case of `CC(C)C(Nc1ccc(S(=O)(=O)N2CCOCC2)cc1[N+](=O)[O-])C(=O)O` (stereo unspecified), the “activity change, negative = growth inhibition” value is reported as inactive: 1.11%. With `O=C(CCCC(=O)N1CCN(c2ccccc2F)CC1)c1ccccc1` the Potency was inconclusive [inhibitor, single point]. In the case of `Cc1ccc(/C=N/NC(=O)c2ccc3ccccc3c2)s1`, the Potency is reported as active: 0.82 µM. In the case of `CSc1ccccc1NC(=O)CCS(=O)(=O)c1nc(-c2cccs2)cc(C(F)(F)F)n1`, the Potency is reported as active: 10.3 µM. With `O=C(NNc1ccccc1[N+](=O)[O-])Nc1ccc(F)cc1F` the Potency was inconclusive [inhibitor, single point]. For `C=CCOc1ccc(CN(C)Cc2nc3cc(C(F)(F)F)ccc3c(=O)[nH]2)cc1`, the Potency was inconclusive [inhibitor, single point]. For `Cc1cc(C)nc(S[C@H]2C[C@@H](C(=O)N3CCN(c4ccccc4F)CC3)N(Cc3ccccc3C(F)(F)F)C2)n1`, the Potency was inconclusive [inhibitor, single point]. With `COc1cccc(NC(=S)NCc2ccncc2)c1` the “activity change, negative = growth inhibition” value was inactive: -6.6%. In the case of `CC1CN(c2nc3ccccn3c(=O)c2/C=C(\C#N)S(=O)(=O)c2ccccc2)CC(C)O1` (stereo unspecified), the “activity change, negative = growth inhibition” value is reported as inactive: -0.562%. With `Cc1ccc(S(=O)(=O)N2CCN(C(=O)COC(=O)/C=C/c3ccc(OC(F)F)cc3)CC2)cc1` the Potency was inconclusive [inhibitor, partial curve]. In the case of `O=C(NCc1ccco1)C(=O)NCC(c1ccco1)N1CCOCC1` (stereo unspecified), the “activity change, negative = growth inhibition” value is reported as inactive: -10.4%. For `O=C(c1ccccc1)C1CN(c2ccccc2)CC1c1ccc(Cl)cc1` (stereo unspecified), the Potency was inconclusive [inhibitor, partial curve]. In the case of `CCOC(=O)C1=CCC(c2ccc(CC)cc2)N(S(=O)(=O)c2ccc(C)cc2)C1` (stereo unspecified), the Potency is reported as active: 23.1 µM. In the case of `O=C(N/N=C/c1cc([N+](=O)[O-])cc([N+](=O)[O-])c1O)/C(=C\c1cccs1)NC(=O)c1ccccc1`, the “activity change, negative = growth inhibition” value is reported as inactive: -1.84%. In the case of `COc1cccc(NC(=S)NNC(=O)c2c([N+](=O)[O-])c(C)nn2C)c1`, the Potency is reported as inconclusive [inhibitor, single point].
